Test results: patent publication US20250064952A1 (ACCELERON PHARMA, published 2025)
Read-outs that look alike come from different tables or passages of the source. Blank lines part the entries; values can stand above or below the binder they belong to.

Assays:
Experiment in all cases: cell-based or functional assay
[1] = target: T1, GDF11 (UniProt O95390 299-407)
T1 sequence (looked up): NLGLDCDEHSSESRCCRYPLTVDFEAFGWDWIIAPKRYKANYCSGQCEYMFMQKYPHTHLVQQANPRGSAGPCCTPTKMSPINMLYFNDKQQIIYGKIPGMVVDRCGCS

[2] = target: T2, GDF8 (UniProt O14793 267-375)
T2 sequence (looked up): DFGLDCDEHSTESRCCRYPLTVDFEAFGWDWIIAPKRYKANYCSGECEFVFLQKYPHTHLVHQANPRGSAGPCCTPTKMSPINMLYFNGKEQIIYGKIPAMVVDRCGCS

[3] = target: T3, activin A (UniProt P08476 311-426)
T3 sequence (looked up): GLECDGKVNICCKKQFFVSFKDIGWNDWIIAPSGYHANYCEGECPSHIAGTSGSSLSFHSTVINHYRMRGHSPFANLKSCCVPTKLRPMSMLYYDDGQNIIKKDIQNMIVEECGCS

[4] = target: T4, BMP10 (UniProt O95393 317-424)
T4 sequence (looked up): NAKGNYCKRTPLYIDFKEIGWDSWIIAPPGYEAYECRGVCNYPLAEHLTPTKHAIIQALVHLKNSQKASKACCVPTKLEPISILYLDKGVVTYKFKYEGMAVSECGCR

[5] = target: T5, BMP9 (UniProt Q9UK05 320-429)
T5 sequence (looked up): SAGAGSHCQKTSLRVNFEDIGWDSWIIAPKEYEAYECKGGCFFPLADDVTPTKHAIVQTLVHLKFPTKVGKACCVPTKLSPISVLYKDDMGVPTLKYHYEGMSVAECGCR

[6] = target: T6, activin B (UniProt P09529 293-407)
T6 sequence (looked up): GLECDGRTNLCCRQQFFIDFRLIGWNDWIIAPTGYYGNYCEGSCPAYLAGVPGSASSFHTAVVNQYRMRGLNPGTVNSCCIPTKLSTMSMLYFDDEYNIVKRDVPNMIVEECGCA

[7] = target: T1, GDF11; remark: listed apart in the source
[8] = target: T3, activin A; remark: listed apart in the source
[9] = target: T5, BMP9; remark: listed apart in the source

B1: ActRIIB(20-134)-G1Fc (Fc fusion)
chain: GRGEAETRECIYYNANWELERTNQSGLERCEGEQDKRLHCYASWRNSSGTIELVKKGCWLDDFNCYDRQECVATEENPQVYFCCCEGNFCNERFTHLPEAGGPEVTYEPPPTAPTG[sequence of human IgG1 Fc and a few adjoining residues omitted]
IC50, A204 (CAGA)12 luciferase reporter [1]: 120 pM
IC50, A204 (CAGA)12 luciferase reporter [2]: 950 pM
IC50, A204 (CAGA)12 luciferase reporter [3]: 50 pM
IC50, A204 (CAGA)12 luciferase reporter [4]: 36 pM
IC50, A204 (CAGA)12 luciferase reporter [5]: 1820 pM
IC50, A204 (CAGA)12 luciferase reporter [6]: 67 pM
IC50, A204 (CAGA)12 luciferase reporter [7]: 0.009 µg/mL
IC50, A204 (CAGA)12 luciferase reporter [8]: 0.008 µg/mL
IC50, A204 (CAGA)12 luciferase reporter [9]: 0.031 µg/mL

B3: variant ActRIIB-Fc homodimer A24N (Fc fusion)
chain: GRGENETRECIYYNANWELERTNQSGLERCEGEQDKRLHCYASWRNSSGTIELVKKGCWLDDFNCYDRQECVATEENPQVYFCCCEGNFCNERFTHLPEAGGPEVTYEPPPTAPTG[sequence of human IgG1 Fc and a few adjoining residues omitted]
IC50, A204 (CAGA)12 luciferase reporter [7]: 0.099 µg/mL
IC50, A204 (CAGA)12 luciferase reporter [8]: 0.128 µg/mL
IC50, A204 (CAGA)12 luciferase reporter [9]: 0.409 µg/mL

B4: variant ActRIIB-Fc homodimer E52K (Fc fusion)
chain: GRGEAETRECIYYNANWELERTNQSGLERCEGKQDKRLHCYASWRNSSGTIELVKKGCWLDDFNCYDRQECVATEENPQVYFCCCEGNFCNERFTHLPEAGGPEVTYEPPPTAPTG[sequence of human IgG1 Fc and a few adjoining residues omitted]
IC50, A204 (CAGA)12 luciferase reporter [7]: 0.296 µg/mL
IC50, A204 (CAGA)12 luciferase reporter [8]: 0.762 µg/mL
IC50, A204 (CAGA)12 luciferase reporter [9]: ~10 µg/mL

B6: variant ActRIIB-Fc homodimer E52A (Fc fusion)
chain: GRGEAETRECIYYNANWELERTNQSGLERCEGAQDKRLHCYASWRNSSGTIELVKKGCWLDDFNCYDRQECVATEENPQVYFCCCEGNFCNERFTHLPEAGGPEVTYEPPPTAPTG[sequence of human IgG1 Fc and a few adjoining residues omitted]
IC50, A204 (CAGA)12 luciferase reporter [7]: 0.071 µg/mL
IC50, A204 (CAGA)12 luciferase reporter [8]: 0.198 µg/mL
IC50, A204 (CAGA)12 luciferase reporter [9]: 0.359 µg/mL

B8: variant ActRIIB-Fc homodimer E50P (Fc fusion)
chain: GRGEAETRECIYYNANWELERTNQSGLERCPGEQDKRLHCYASWRNSSGTIELVKKGCWLDDFNCYDRQECVATEENPQVYFCCCEGNFCNERFTHLPEAGGPEVTYEPPPTAPTG[sequence of human IgG1 Fc and a few adjoining residues omitted]
IC50, A204 (CAGA)12 luciferase reporter [7]: 0.638 µg/mL
IC50, A204 (CAGA)12 luciferase reporter [8]: 0.756 µg/mL
IC50, A204 (CAGA)12 luciferase reporter [9]: ~3 µg/mL

B9: variant ActRIIB-Fc homodimer E50K (Fc fusion)
chain: GRGEAETRECIYYNANWELERTNQSGLERCKGEQDKRLHCYASWRNSSGTIELVKKGCWLDDFNCYDRQECVATEENPQVYFCCCEGNFCNERFTHLPEAGGPEVTYEPPPTAPTG[sequence of human IgG1 Fc and a few adjoining residues omitted]
IC50, A204 (CAGA)12 luciferase reporter [7]: 0.18 µg/mL
IC50, A204 (CAGA)12 luciferase reporter [8]: 0.132 µg/mL
IC50, A204 (CAGA)12 luciferase reporter [9]: 0.721 µg/mL

Now from value to binder:

IC50, A204 (CAGA)12 luciferase reporter [7]: 0.591 µg/mL
IC50, A204 (CAGA)12 luciferase reporter [9]: 1.21 µg/mL
B2: variant ActRIIB-Fc homodimer R40A (Fc fusion)
chain: GRGEAETRECIYYNANWELEATNQSGLERCEGEQDKRLHCYASWRNSSGTIELVKKGCWLDDFNCYDRQECVATEENPQVYFCCCEGNFCNERFTHLPEAGGPEVTYEPPPTAPTG[sequence of human IgG1 Fc and a few adjoining residues omitted]

IC50, A204 (CAGA)12 luciferase reporter [7]: 0.318 µg/mL
IC50, A204 (CAGA)12 luciferase reporter [8]: 0.206 µg/mL
IC50, A204 (CAGA)12 luciferase reporter [9]: 0.777 µg/mL
B5: variant ActRIIB-Fc homodimer K55R (Fc fusion)
chain: GRGEAETRECIYYNANWELERTNQSGLERCEGEQDRRLHCYASWRNSSGTIELVKKGCWLDDFNCYDRQECVATEENPQVYFCCCEGNFCNERFTHLPEAGGPEVTYEPPPTAPTG[sequence of human IgG1 Fc and a few adjoining residues omitted]

IC50, A204 (CAGA)12 luciferase reporter [7]: 0.276 µg/mL
B7: variant ActRIIB-Fc homodimer F82W (Fc fusion)
chain: GRGEAETRECIYYNANWELERTNQSGLERCEGEQDKRLHCYASWRNSSGTIELVKKGCWLDDWNCYDRQECVATEENPQVYFCCCEGNFCNERFTHLPEAGGPEVTYEPPPTAPTG[sequence of human IgG1 Fc and a few adjoining residues omitted]

IC50, A204 (CAGA)12 luciferase reporter [7]: 0.234 µg/mL
B10: variant ActRIIB-Fc homodimer L79R (Fc fusion)
chain: GRGEAETRECIYYNANWELERTNQSGLERCEGEQDKRLHCYASWRNSSGTIELVKKGCWRDDFNCYDRQECVATEENPQVYFCCCEGNFCNERFTHLPEAGGPEVTYEPPPTAPTG[sequence of human IgG1 Fc and a few adjoining residues omitted]

IC50, A204 (CAGA)12 luciferase reporter [7]: 0.544 µg/mL
B11: variant ActRIIB-Fc homodimer Y60P (Fc fusion)
chain: GRGEAETRECIYYNANWELERTNQSGLERCEGEQDKRLHCPASWRNSSGTIELVKKGCWLDDFNCYDRQECVATEENPQVYFCCCEGNFCNERFTHLPEAGGPEVTYEPPPTAPTG[sequence of human IgG1 Fc and a few adjoining residues omitted]

IC50, A204 (CAGA)12 luciferase reporter [7]: 0.414 µg/mL
B12: variant ActRIIB-Fc homodimer Y60K (Fc fusion)
chain: GRGEAETRECIYYNANWELERTNQSGLERCEGEQDKRLHCKASWRNSSGTIELVKKGCWLDDFNCYDRQECVATEENPQVYFCCCEGNFCNERFTHLPEAGGPEVTYEPPPTAPTG[sequence of human IgG1 Fc and a few adjoining residues omitted]

IC50, A204 (CAGA)12 luciferase reporter [7]: 0.045 µg/mL
IC50, A204 (CAGA)12 luciferase reporter [9]: 0.165 µg/mL
B13: variant ActRIIB-Fc homodimer K74R (Fc fusion)
chain: GRGEAETRECIYYNANWELERTNQSGLERCEGEQDKRLHCYASWRNSSGTIELVRKGCWLDDFNCYDRQECVATEENPQVYFCCCEGNFCNERFTHLPEAGGPEVTYEPPPTAPTG[sequence of human IgG1 Fc and a few adjoining residues omitted]
